Results as given in the supplement of paper PMC3334620.
Over roughly 33,000 sequences, “E-score (-0.5 to 0.5)” has its median near -0.056; the highest 2% begin near 0.38. Some of the results follow.

Molecular target: Stb4 (UniProt P50104)
Assay: PBM E-score (8-mer binding enrichment) (E-score (-0.5 to 0.5)); higher = stronger / more preferred TF binding; most listed sequences are background and not binding sites
Details: protein concentration: 200 nM; construct: GST-DNA-binding domain
Procedure, shortened: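 Each ungapped eight-base word and its reverse complement, pooled, received an E-score from the Universal PBM Analysis Suite. Underlying scans, normalised with masliner, recorded fluorescent anti-GST bound to GST-tagged yeast transcription factors. These were applied at about 100-200 nM to universal all-10-mer Agilent arrays double-stranded by primer extension.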

Row | Sequence | PBM E-score
1 | CACAAGCA | -0.23
2 | GGGCAACA | -0.129
3 | ACCAGCGT | -0.3
4 | CCCAATCG | 0.0319
5 | AGCGTACA | -0.243
6 | ATCATGGG | -0.125
7 | AGAAGTTA | -0.217
8 | CCCCCGAG | 0.352
9 | AGGCCCGG | 0.203
10 | AAGGGCCC | -0.0455
11 | ATCACGCG | -0.0428
12 | AAAAGGTG | -0.268
13 | ATACTAGG | -0.0173
14 | CACGTCCG | 0.136
15 | AGAGTTTA | 0.0803
16 | AGAGACAT | -0.0452
17 | AGTGACGA | -0.081
18 | CGGACGGA | 0.296
19 | GGGGTTAA | 0.0779
20 | ATGTTCCG | 0.448
21 | AACCGGAT | 0.383
22 | ACAATTAG | -0.0931
23 | CCCGCACC | 0.236
24 | GATCATCC | 0.188
25 | GGTAAGAC | 0.0667

Row | Sequence | PBM E-score
26 | CTCAAATA | -0.146
27 | ACAAGGCC | -0.116
28 | CTGATTTA | 0.0124
29 | AGCTGGAT | -0.0862
30 | CTTATACA | -0.168
31 | AAACTGGT | -0.0578
32 | GACACTGA | 0.0091
33 | CCTTGAAC | -0.122
34 | ACCAATCC | 0.0776
35 | GAGTGTAC | -0.0195
36 | GTAGCACA | -0.22
37 | AAAAGACC | -0.102
38 | CATGCAAC | -0.089
39 | CCAGCGAC | -0.216
40 | CTAATAAC | -0.106
41 | AGTATAGG | -0.0135
42 | ATGCCGCC | 0.1
43 | CTTGCATC | -0.0179
44 | CTCGCGCC | 0.0929
45 | AGCGACTA | -0.317
46 | ACATCCTA | -0.319
47 | CAAGGCTA | 0.0425
48 | ACTCTTTA | -0.29
49 | GTGCGTGA | 0.166
50 | AATGCGTA | -0.107

Row | Sequence | PBM E-score
51 | AACAAAAA | -0.0828
52 | AGGTTAGG | -0.0245
53 | ACCCAGGT | -0.182
54 | CGCAACTC | 0.0825
55 | GCGAGTCA | -0.118
56 | TAGCACCA | -0.101
57 | CTTGCGAA | 0.00107
58 | ATCGTCGG | 0.339
59 | ACTCGTTC | 0.0661
60 | ACTGCGTC | -0.289
61 | ACGGAAAT | 0.357
62 | GAACGCAA | 0.0345
63 | ACAAATAG | 0.0571
64 | CCCGTTTA | 0.0245
65 | CACCCCAA | -0.141
66 | AAATCGTT | -0.182
67 | CCAGGCAG | -0.185
68 | CCCTGCCA | 0.0573
69 | CAGTCAGA | -0.283
70 | CCGTATAA | 0.225
71 | CCGGGGGC | 0.187
72 | ACAGAGCT | -0.137
73 | GACTATAC | -0.0767
74 | ACGTTTTA | -0.135
75 | TACCTTAA | -0.00825

Row | Sequence | PBM E-score
76 | GTGTAAAA | -0.0759
77 | ATGCGGGA | 0.319
78 | CTCCTATC | -0.106
79 | ATTTTAAA | 0.0732
80 | AAGTAGGT | -0.0424
81 | GGTATTGA | 0.0621
82 | AATACACT | -0.156
83 | GCCTTTAC | -0.031
84 | GGTCTATA | -0.115
85 | CTTGCCAC | -0.138
86 | GTTGGGCA | -0.0881
87 | AGTGCTTA | -0.101
88 | AGTGGGCC | -0.161
89 | ATGTTCTG | -0.0519
90 | CCATTCCG | 0.35
91 | TCAAACAA | -0.0936
92 | CTTTGAAC | -0.108
93 | AAGTCAAG | -0.26
94 | CGGATTGC | 0.308
95 | AGCGCAAC | -0.00918
96 | CACTTCAC | 0.00698
97 | GGGTACCA | 0.0218
98 | ATCGCCTA | -0.00638
99 | ACAGAGTA | -0.158
100 | ATCCAGAA | -0.183

Row | Sequence | PBM E-score
101 | GAGAAATA | 0.0451
102 | AATAAGGC | -0.172
103 | ATTAAGAA | -0.0469
104 | GCATTAGC | -0.0519
105 | CGGTCGAA | 0.123
106 | ATTCTCCC | 0.117
107 | GGACCTCC | -0.0205
108 | CAGTCTGA | -0.171
109 | CCTACACA | -0.00549
110 | ACCCATCG | 0.089
111 | ACTTTGCG | -0.165
112 | ATGAGCAG | -0.235
113 | ACCATCCG | 0.406
114 | TCAGCTGA | -0.216
115 | ATGCCGGG | 0.21
116 | AGACAACG | 0.00381
117 | CGGATGAG | 0.369
118 | ACGGTAGA | -0.0117
119 | AATTATAC | 0.148
120 | AAAAGAGA | -0.116
121 | CTGAGGTA | -0.0338
122 | ACACATAT | -0.0896
123 | CACTAAGG | -0.0799
124 | CAATGACC | -0.0476
125 | GCGTGATA | -0.137

Row | Sequence | PBM E-score
126 | AATAGCCG | 0.365
127 | CATTGTTC | 0.0687
128 | GCTATTGA | 0.0421
129 | AAAGTGCC | 0.09
130 | ACAGTGCA | 0.0226
131 | CACGGATA | 0.385
132 | ACTTCATA | -0.0493
133 | AACTTTGC | -0.0308
134 | CGAGTTTA | 0.121
135 | GTTGCTTA | -0.114
136 | AACATCCG | 0.45
137 | GCGTGTTA | -0.228
138 | CCAAATTA | -0.129
139 | AAACCGAA | 0.259
140 | CCCTAACG | -0.0999
141 | CCACTTTA | -0.0638
142 | ACTTTTGA | -0.157
143 | ACCATCGC | -0.134
144 | ACAATACG | -0.0698
145 | ACACACTG | -0.217
146 | CGACTTCA | 0.105
147 | CTGCCAGC | -0.208
148 | CCAGAGTA | -0.0737
149 | ACTGCAAG | -0.0615
150 | GGAGAGTA | 0.124

Row | Sequence | PBM E-score
151 | TCTTAGAA | 0.135
152 | CACTTATA | -0.0137
153 | CATGTAAG | -0.101
154 | CTAAGGCC | -0.243
155 | AATCCACT | -0.0867
156 | GCCTCGCA | -0.288
157 | ACGTGTCT | -0.0491
158 | CCGAGGAA | 0.387
159 | AGGATTGG | -0.223
160 | CCCAACCG | 0.0985
161 | CACAAGTA | -0.115
162 | AGAAGCAA | -0.13
163 | AACCGCTC | 0.0554
164 | AGAGATCG | -0.0566
165 | AAAGAGCG | -0.196
166 | AACAAGCC | -0.183
167 | GCCCCACA | -0.12
168 | GCGGGTCC | 0.0973
169 | GCTATTCC | 0.0156
170 | CGTCCTTA | -0.0569
171 | AATATAGG | -0.163
172 | CGTGGGAC | -0.106
173 | CTGGCTCA | -0.197
174 | TCGAACAA | -0.141
175 | ACATCTGG | 0.0485

Row | Sequence | PBM E-score
176 | GAAGGAGC | -0.203
177 | GAATTGAC | -0.063
178 | CCAGGGCG | -0.033
179 | ATGCCTTG | -0.187
180 | CTCCACGA | -0.208
181 | CATATTCG | 0.147
182 | GCGTATAA | 0.0211
183 | GTAGACAA | -0.122
184 | ATCTATAG | -0.103
185 | ACATCAAG | -0.0909
186 | CTGATCCA | -0.0972
187 | CGCGCTCC | 0.0904
188 | AACTCCGG | 0.352
189 | GAGTGCTA | 0.0392
190 | AGTTTGTC | -0.173
191 | TGAACCAA | -0.121
192 | AAATCAAA | -0.0179
193 | ATCGCTAC | -0.136
194 | ACGGTATG | -0.0571
195 | AGTTACCG | 0.28
196 | ACGTACTA | -0.194
197 | CGATTCTC | 0.0534
198 | GAGGGGAA | 0.249
199 | CCTACTCC | -0.176
200 | GACCCGCA | 0.174

Row | Sequence | PBM E-score
201 | GCGCTCCA | -0.0561
202 | GGACTTGA | -0.0587
203 | CGGACGAA | 0.259
204 | ACGGGCCC | 0.163
205 | ATTAAACC | 0.0482
206 | ATTCTTGG | 0.16
207 | AGACCCCT | -0.304
208 | ATCAATGA | 0.0858
209 | GGCCCACC | 0.0688
210 | ATTGATGG | -0.0726
211 | CGACGGAG | 0.195
212 | CACCGGTG | 0.00925
213 | CCGTTCAC | -0.0602
214 | GAAGGTCA | -0.184
215 | CCTACGAA | -0.00465
216 | ACCTCCTC | -0.153
217 | CTTGTGTA | -0.204
218 | CCGAAAGA | 0.388
219 | CGCATCGC | -0.124
